Reference: article PMC10478803 (2023)

Target: HLA-DP5 (DPA1*02:02 and DPB1*05:01), full-length, expressed in HEK293 cells (human)
Test: FACS; competition with biotin-HA1 peptide (10 ug/mL)

IC50	Binder
79.7 µg/mL	DEEMKVTVAFNQFGPN
39.4 µg/mL	DKSMKVTVAFNQFGPN [NF[WT]-pCj1 peptide, C-terminally-flanked version of NF-pCj1 (16-residue)]
